Reference: PubChem BioAssay AID686979 (National Center for Advancing Translational Sciences (NCATS), 2013)
Out of some 420,000 compounds screened, about 50,000 (12%) were called active. Inconclusive results, whose numbers are uncertain, are shown with a selection of clear calls. Calls come from the whole dose curve; as a rule, active = well fitted inhibition curve with a large enough effect; inconclusive = small, poorly fitted or top-dose-only effect; inactive = flat fitted curve, though single readings scatter. No potency is given beside an inconclusive call; the fits are too rough.

Experiment: qHTS for Inhibitors of human tyrosyl-DNA phosphodiesterase 1 (TDP1): qHTS in cells in presence of CPT; note: nearly all actives have a fitted effect of over 55% in size
Settings: chicken DT40 Tdp1-/-;hTDP1 cells + 20 nM CPT, ATP luminescence, 48 h; activity change, negative = growth inhibition: at 46.2 µM (top of the series)
Outline: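 Chicken DT40 Tdp1-/- cells stably complemented with human TDP1 were seeded at 400 cells/well in medium containing 20 nM camptothecin, exposed to pin-transferred compounds, and grown at 37 °C for at least 48 hr. Viability was read as ATP luminescence.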
% is set by controls: 0 for no effect and ±100 for the full control effect; potency is the fitted concentration of half-maximal effect; tags give direction and shape of the fitted curve.

Structure (SMILES)	Potency	activity change, negative = growth inhibition
CCOC(=S)SCc1cn2ccc(C)cc2n1	inconclusive [inhibitor, single point]	
CCOC(=O)CC(NS(=O)(=O)Cc1ccccc1)c1ccc(C)cc1 (configuration not stated)	inactive	
N[C@@H](C(=O)O)c1ccc(O)c(C(=O)O)c1	inactive	
O=C(Nc1ccccc1[N+](=O)[O-])c1ccc(S(=O)(=O)N2CCCC2)cc1	inactive	
COc1ccc(C2C(C#N)=C(N)Oc3n[nH]c(C)c32)cc1Cn1nc(C)c([N+](=O)[O-])c1C (configuration not stated)	inconclusive [inhibitor, single point]	
O=C(NC1=NCCCCC1)c1cccc2ccccc12	inactive	
COc1ccc(OC)c(S(=O)(=O)NCC(c2ccco2)N2CCc3ccccc3C2)c1 (configuration not stated)	inconclusive [inhibitor, single point]	
CCCCn1c(N)c(N(CC(C)C)C(=O)C2=NN(c3cc(C)ccc3C)C(=O)CC2)c(=O)[nH]c1=O	inactive	
COc1ccc(CN(C)CC(O)COC(c2ccccc2)c2ccccc2)c(OC)c1OC (configuration not stated)	inconclusive [inhibitor, single point]	
O=C1CSC(c2ccccc2)N1c1cccnc1 (configuration not stated)	inactive	
CCOC(=O)c1cc(-c2ccc(F)cc2)n(CCC(=O)Nc2nc3ccc(OC)cc3s2)c1C	active: 18.4 µM	
Cc1ccc2nc(-c3ccncc3)c(Nc3ccccc3)n2c1	inconclusive [inhibitor, partial curve, poor fit]	
CC(=O)c1ccccc1NC(=O)COC(=O)c1c(C)nn(-c2ccccc2)c1C	inconclusive [inhibitor, single point]	
CC(C)c1ccc(NS(=O)(=O)c2ccc3[nH]cc(C(=O)NCCc4ccccc4)c(=O)c3c2)cc1	inconclusive [inhibitor, single point]	
O=S(=O)(c1ccc2ccccc2c1)N1CCc2ccccc21	inconclusive [inhibitor, partial curve]	
COc1ccc(CNC(=O)C2CCC(=O)N(CCCN3CCCC3=O)C2)c(OC)c1 (configuration not stated)	inactive	
O=C(c1ccc([N+](=O)[O-])s1)N1CCc2ccccc2C1		inconclusive: -33.7% [inhibitor]
COc1ccc(CCNC(=O)c2cc(-c3cc(C)c(C)cc3O)n[nH]2)cc1OC		inconclusive: -31.2% [inhibitor]
COc1ccc(Cl)cc1Nc1nc(C)nc2c1nnn2Cc1ccccc1	inactive	
CCCC(=O)Nc1nnc(-c2ccccc2)o1	inactive	
CCOC(=O)[C@@H]1[C@H]2COc3cc(OC)ccc3[C@H]2N2C(=O)N(c3ccc(C)cc3)C(=O)[C@@]12C	inconclusive [inhibitor, single point]	
COc1ccc(NC(=O)COC(=O)c2ccc(OCc3ccccc3Cl)c(OC)c2)c(OC)c1	inconclusive [inhibitor, full curve, poor fit]	
O=C(NCCc1c[nH]c2ccccc12)OCCSS(=O)(=O)O	inactive	
COc1ccc(S(=O)(=O)N(CC(=O)Nc2cc(Cl)ccc2C)Cc2ccccc2)cc1OC	active: 14.6 µM	

Structure (SMILES)	Potency	activity change, negative = growth inhibition
CCOc1ccc(S(=O)(=O)Nc2cc3c(C(=O)OC)c(COC)oc3c3ccccc23)cc1	active: 5.17 µM	
COc1ccc(C(=O)CC(c2ccccc2)C2CCCCC2=O)cc1 (configuration not stated)	inconclusive [inhibitor, partial curve]	
COc1ccc(CN2CCC(CO)(Cc3ccccc3C(F)(F)F)CC2)c(F)c1	active: 16.4 µM	
O=C(CC12CC3CC(CC(C3)C1)C2)NC(=S)NCc1ccccc1	inconclusive [inhibitor, single point]	
Cc1ccc(NC(=O)CO/N=C/c2ccc(N(C)C)cc2)cc1	inconclusive [inhibitor, single point]	
O=C1c2ccccc2C(c2nc3ccccc3[nH]2)N1c1ccccc1 (configuration not stated)	inactive	
O=S(=O)(c1ccc(Cl)c(NC(=S)Nc2ccccc2N2CCOCC2)c1)N1CCOCC1	inactive	
CCn1nc(C)c2c(-c3ccccc3)cc(=O)n(C(C)C(=O)NCCc3ccc(OC)c(OC)c3)c21 (configuration not stated)	inconclusive [inhibitor, single point]	
CCOc1ccc(N(CC(=O)N2CCOCC2)S(=O)(=O)c2ccc(F)cc2)cc1	inactive	
CC(C)=CCc1c(O)cc2occ(-c3ccc4c(c3)OCO4)c(=O)c2c1O	inconclusive [inhibitor, single point]	
Nc1nnc(SC2CCCC2)s1	inconclusive [inhibitor, single point]	
CCOc1cc(-c2ccc(OC(=O)c3ccc(OC)cc3)c(OC)c2)cc(=O)c2c(C)oc(C)c12	active: 14.6 µM	
CCOc1ccc(NC(=O)COc2ccc(C(=O)NCc3cccc(OC)c3)cc2OC)cc1	inconclusive [inhibitor, partial curve]	
Cc1ccccc1-c1csc(C(O)c2cccnc2)n1 (configuration not stated)	inconclusive [inhibitor, single point]	
CC(C)OP(=O)(OC(C)C)C(NC(=O)c1cccc([N+](=O)[O-])c1)C(N)=O (configuration not stated)	inactive	
O=C(Nc1ccc(Cl)c(-c2nc3ccccc3[nH]2)c1)c1cccnc1	inconclusive [inhibitor, single point]	
O=C(C1=C(O)C(=O)N(CCN2CCOCC2)C1c1ccc(Cl)cc1)c1cc2ccccc2o1 (configuration not stated)	inactive	
Cc1ccc(N(CC(=O)Nc2cc(C)ccc2C)S(=O)(=O)c2c(C)noc2C)cc1	inconclusive [inhibitor, single point]	
OCCCn1c(CCNc2nc(-c3ccc(F)cc3)cs2)nc2cc(C(F)(F)F)ccc21	inconclusive [inhibitor, single point]	
COc1ccc(C(=O)CSc2nnc(CNC(=O)c3ccccc3)o2)cc1	inconclusive [inhibitor, single point]	
O=[N+]([O-])c1nn(-c2ccc3c(c2)OCCO3)n(O)c1=NC1CCCC1	active: 18.4 µM	
COC(=O)c1ccc2nc(-c3ccco3)c(Cc3ccc(C)cc3)n2c1	inactive	
CCOC(=O)C1Oc2ccccc2C(c2ccoc2)=C1C(=O)OC (configuration not stated)	inconclusive [inhibitor, single point]	
Cc1ccc(N=C2NC(=O)CC(C(=O)Nc3cc(C(F)(F)F)ccc3Cl)S2)cc1 (configuration not stated)		inconclusive: -35.4% [inhibitor]

Structure (SMILES)	Potency	activity change, negative = growth inhibition
O=C(Nc1ccc([N+](=O)[O-])cc1)C(c1ccccc1)c1ccccc1	active: 18.4 µM	
COc1ccccc1C(=O)N/C(=C\c1ccc(Br)cc1)C(=O)NCCO	inactive	
Cc1ccc(S(=O)(=O)CCC(=O)Nc2ccccc2C)cc1		inconclusive: -30.4% [inhibitor]
CCc1cccc(C)c1NC(=S)NCCc1c(C)[nH]c2ccc(C)cc12	active: 10.3 µM	
Cc1cccc(C)c1NC(=O)C(c1ccccc1)n1c(=O)c(-c2ccccc2)nc2ccccc21 (configuration not stated)	inconclusive [inhibitor, single point]	
Cc1cccc(NC(=O)NCc2ccc3c(c2)cc(C)n3C)c1	inconclusive [inhibitor, partial curve, poor fit]	
COc1ccc(NC(=O)CCCCCn2nnc3ccccc3c2=O)cc1	inactive	
O=C(NC1CCN(C(=O)Nc2ccccc2Cl)CC1)c1cccc(F)c1	inconclusive [inhibitor, partial curve]	
CC[n+]1c(/C=C/Nc2ccccc2)oc2ccccc21	active: 14.6 µM	
CCOP(=O)(OCC)C(C#N)=C1SCN(c2ccc(Cl)cc2)CS1	inconclusive [inhibitor, single point]	
Clc1ccccc1Nc1nc(-c2ccncc2)nc2ccccc12	active: 29.1 µM	
O=C(Cn1nnc2c(cnn2-c2ccccc2)c1=O)NCc1cccs1	inconclusive [inhibitor, single point]	
Cn1ccc2c(-c3cccc(C=O)c3)cc3c(c21)C1CCC3O1 (configuration not stated)	inconclusive [inhibitor, single point]	
COc1cccc(CN(C)C(=O)CN2C(=O)NC(c3ccccc3)(c3ccccc3)C2=O)c1OC	inconclusive [inhibitor, single point]	
CN1CCN(c2nc(-c3cccc(C#N)c3)nc3ccccc23)CC1	inconclusive [inhibitor, single point]	
Cc1cccc(CCNC(=O)C2CCN(S(=O)(=O)c3c(C)noc3C)CC2)c1	inconclusive [inhibitor, single point]	
CC1CC(N(C(=O)c2ccco2)c2ccccc2)c2ccccc2N1 (configuration not stated)	inconclusive [inhibitor, single point]	
COc1ccc(-n2c(SCC(=O)c3ccccc3)nc3c([nH]c4ccccc43)c2=O)cc1	inactive	
COc1cc(Cl)c(NS(=O)(=O)c2cc(-c3cc(C)no3)ccc2OC)c(OC)c1	inconclusive [inhibitor, single point]	
COCCNC(=O)C1(C)CCN(C(=O)c2sccc2C)C1 (configuration not stated)	inactive	
COc1ccc(Cl)cc1NC(=O)NCC1CCN(Cc2cc(C)ccc2C)CC1	inconclusive [inhibitor, single point]	
CCOC(=O)N1C(=O)NC(=O)C1c1ccc(Cl)cc1 (configuration not stated)	inactive	
Cc1cc(O)c(C(=O)/C=C/c2ccc(Cl)cc2)c(=O)o1	inconclusive [inhibitor, single point]	
COc1ccc(C2c3ccc(O)cc3Oc3ncn(Cc4ccco4)c(=N)c32)cc1OC (configuration not stated)	inconclusive [inhibitor, single point]	
